The sequences are guide strands of siRNAs; only the seed at positions 2 to 7 varies.
What was measured:
[1] = test system: H4; test: cell viability relative to siNT1 (ATP content); H4 human neuroglioma and GL261 mouse glioma; higher = less toxic; conditions: siRNA concentration 10 nM; 96 h; human
[2] = test system: GL261; test: as above; conditions: siRNA concentration 25 nM; 96 h; mouse
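Also: cells reverse transfected with siRNA duplexes via lipid reagent, ATP read by luminescence, triplicate wells, values scaled to mean viability with non-targeting control siNT1.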

Sequence: UUGGUGAACAUGUAAACCA
- cell viability [1]: 99.1%
- cell viability [2]: 30.7%

Sequence: UUGGUGCACAUGUAAACCA
- cell viability [1]: 50.5%
- cell viability [2]: 43.8%

Sequence: UUGGUGGACAUGUAAACCA
- cell viability [1]: 19%
- cell viability [2]: 33%

Sequence: UUGGUGUACAUGUAAACCA
- cell viability [1]: 90.6%
- cell viability [2]: 30.6%

Sequence: UUGGUUAACAUGUAAACCA
- cell viability [1]: 105%
- cell viability [2]: 56%

Sequence: UUGGUUCACAUGUAAACCA
- cell viability [1]: 78.1%
- cell viability [2]: 86.1%

Sequence: UUGGUUGACAUGUAAACCA
- cell viability [1]: 113%
- cell viability [2]: 66.3%

Sequence: UUGGUUUACAUGUAAACCA
- cell viability [1]: 108%
- cell viability [2]: 56.8%

Sequence: UUGUAAAACAUGUAAACCA
- cell viability [1]: 69.6%
- cell viability [2]: 71.8%

Sequence: UUGUAACACAUGUAAACCA
- cell viability [1]: 72.9%
- cell viability [2]: 51.4%

Sequence: UUGUAAGACAUGUAAACCA
- cell viability [1]: 96.5%
- cell viability [2]: 51.3%

Sequence: UUGUAAUACAUGUAAACCA
- cell viability [1]: 61.7%
- cell viability [2]: 45.8%

Sequence: UUGUACAACAUGUAAACCA
- cell viability [1]: 94.1%
- cell viability [2]: 54.4%

Sequence: UUGUACCACAUGUAAACCA
- cell viability [1]: 58.9%
- cell viability [2]: 32.9%

Sequence: UUGUACGACAUGUAAACCA
- cell viability [1]: 101%
- cell viability [2]: 63%

Sequence: UUGUACUACAUGUAAACCA
- cell viability [1]: 60.7%
- cell viability [2]: 45.8%

Sequence: UUGUAGAACAUGUAAACCA
- cell viability [1]: 71.9%
- cell viability [2]: 35.4%

Sequence: UUGUAGCACAUGUAAACCA
- cell viability [1]: 47.9%
- cell viability [2]: 52.5%

Sequence: UUGUAGGACAUGUAAACCA
- cell viability [1]: 45.3%
- cell viability [2]: 20%

Sequence: UUGUAGUACAUGUAAACCA
- cell viability [1]: 9.47%
- cell viability [2]: 16.9%

Sequence: UUGUAUAACAUGUAAACCA
- cell viability [1]: 82.2%
- cell viability [2]: 55%

Sequence: UUGUAUCACAUGUAAACCA
- cell viability [1]: 34.7%
- cell viability [2]: 34.9%

Sequence: UUGUAUGACAUGUAAACCA
- cell viability [1]: 94.9%
- cell viability [2]: 39%

Sequence: UUGUAUUACAUGUAAACCA
- cell viability [1]: 49.4%
- cell viability [2]: 52.7%

Sequence: UUGUCAAACAUGUAAACCA
- cell viability [1]: 89.5%
- cell viability [2]: 54.5%

Sequence: UUGUCACACAUGUAAACCA
- cell viability [1]: 36.2%
- cell viability [2]: 52.5%

Sequence: UUGUCAGACAUGUAAACCA
- cell viability [1]: 73.8%
- cell viability [2]: 61.3%

Sequence: UUGUCAUACAUGUAAACCA
- cell viability [1]: 66.6%
- cell viability [2]: 39.7%

Sequence: UUGUCCAACAUGUAAACCA
- cell viability [1]: 70.4%
- cell viability [2]: 56.7%

Sequence: UUGUCCCACAUGUAAACCA
- cell viability [1]: 30.3%
- cell viability [2]: 26.7%

Sequence: UUGUCCGACAUGUAAACCA
- cell viability [1]: 62.3%
- cell viability [2]: 33.8%

Sequence: UUGUCCUACAUGUAAACCA
- cell viability [1]: 56.2%
- cell viability [2]: 33.4%

Sequence: UUGUCGAACAUGUAAACCA
- cell viability [1]: 75.1%
- cell viability [2]: 53.1%

Sequence: UUGUCGCACAUGUAAACCA
- cell viability [1]: 69.8%
- cell viability [2]: 37.4%

Sequence: UUGUCGGACAUGUAAACCA
- cell viability [1]: 47.1%
- cell viability [2]: 32.5%

Sequence: UUGUCGUACAUGUAAACCA
- cell viability [1]: 74%
- cell viability [2]: 33.7%

Sequence: UUGUCUAACAUGUAAACCA
- cell viability [1]: 71.1%
- cell viability [2]: 67%

Sequence: UUGUCUCACAUGUAAACCA
- cell viability [1]: 78.9%
- cell viability [2]: 21.6%

Sequence: UUGUCUGACAUGUAAACCA
- cell viability [1]: 73.7%
- cell viability [2]: 60.9%

Sequence: UUGUCUUACAUGUAAACCA
- cell viability [1]: 72.3%
- cell viability [2]: 53.7%

Sequence: UUGUGAAACAUGUAAACCA
- cell viability [1]: 57.8%
- cell viability [2]: 40.3%

Sequence: UUGUGACACAUGUAAACCA
- cell viability [1]: 42.9%
- cell viability [2]: 15.5%

Sequence: UUGUGAGACAUGUAAACCA
- cell viability [1]: 55.7%
- cell viability [2]: 15.9%

Sequence: UUGUGAUACAUGUAAACCA
- cell viability [1]: 48.5%
- cell viability [2]: 32%

Sequence: UUGUGCAACAUGUAAACCA
- cell viability [1]: 75.8%
- cell viability [2]: 27.7%

Sequence: UUGUGCCACAUGUAAACCA
- cell viability [1]: 69.6%
- cell viability [2]: 48.5%

Sequence: UUGUGCGACAUGUAAACCA
- cell viability [1]: 70.3%
- cell viability [2]: 28.7%

Sequence: UUGUGCUACAUGUAAACCA
- cell viability [1]: 90.3%
- cell viability [2]: 28.3%

Sequence: UUGUGGAACAUGUAAACCA
- cell viability [1]: 49.6%
- cell viability [2]: 46.6%

Sequence: UUGUGGCACAUGUAAACCA
- cell viability [1]: 47.2%
- cell viability [2]: 25%

Sequence: UUGUGGGACAUGUAAACCA
- cell viability [1]: 66.4%
- cell viability [2]: 25.7%

Sequence: UUGUGGUACAUGUAAACCA
- cell viability [1]: 36.2%
- cell viability [2]: 26.9%

Sequence: UUGUGUAACAUGUAAACCA
- cell viability [1]: 89.8%
- cell viability [2]: 37.2%

Sequence: UUGUGUCACAUGUAAACCA
- cell viability [1]: 52.3%
- cell viability [2]: 19.8%

Sequence: UUGUGUGACAUGUAAACCA
- cell viability [1]: 56.3%
- cell viability [2]: 33.9%

Sequence: UUGUGUUACAUGUAAACCA
- cell viability [1]: 71.9%
- cell viability [2]: 25.5%

Sequence: UUGUUAAACAUGUAAACCA
- cell viability [1]: 83.7%
- cell viability [2]: 46.7%

Sequence: UUGUUACACAUGUAAACCA
- cell viability [1]: 57.1%
- cell viability [2]: 55.9%

Sequence: UUGUUAGACAUGUAAACCA
- cell viability [1]: 60.8%
- cell viability [2]: 26.1%

Sequence: UUGUUAUACAUGUAAACCA
- cell viability [1]: 47.9%
- cell viability [2]: 26.6%

Sequence: UUGUUCAACAUGUAAACCA
- cell viability [1]: 57.9%
- cell viability [2]: 51.5%

Sequence: UUGUUCCACAUGUAAACCA
- cell viability [1]: 10.8%
- cell viability [2]: 24.7%

Sequence: UUGUUCGACAUGUAAACCA
- cell viability [1]: 55.7%
- cell viability [2]: 45.1%

Sequence: UUGUUCUACAUGUAAACCA
- cell viability [1]: 39.4%
- cell viability [2]: 23.2%

Sequence: UUGUUGAACAUGUAAACCA
- cell viability [1]: 54.3%
- cell viability [2]: 33.5%

Sequence: UUGUUGCACAUGUAAACCA
- cell viability [1]: 67.4%
- cell viability [2]: 43.7%

Sequence: UUGUUGGACAUGUAAACCA
- cell viability [1]: 55.6%
- cell viability [2]: 27.7%

Sequence: UUGUUGUACAUGUAAACCA
- cell viability [1]: 45.7%
- cell viability [2]: 40%

Sequence: UUGUUUAACAUGUAAACCA
- cell viability [1]: 92.2%
- cell viability [2]: 50.8%

Sequence: UUGUUUCACAUGUAAACCA
- cell viability [1]: 56.6%
- cell viability [2]: 32.9%

Sequence: UUGUUUGACAUGUAAACCA
- cell viability [1]: 79.5%
- cell viability [2]: 14.3%

Sequence: UUGUUUUACAUGUAAACCA
- cell viability [1]: 67.9%
- cell viability [2]: 77%

Sequence: UUUAAAAACAUGUAAACCA
- cell viability [1]: 82.1%
- cell viability [2]: 63.6%

Sequence: UUUAAACACAUGUAAACCA
- cell viability [1]: 105%
- cell viability [2]: 58.2%

Sequence: UUUAAAGACAUGUAAACCA
- cell viability [1]: 110%
- cell viability [2]: 59.3%

Sequence: UUUAAAUACAUGUAAACCA
- cell viability [1]: 77.4%
- cell viability [2]: 75.1%

Sequence: UUUAACAACAUGUAAACCA
- cell viability [1]: 111%
- cell viability [2]: 66.2%

Sequence: UUUAACCACAUGUAAACCA
- cell viability [1]: 53.2%
- cell viability [2]: 34.4%

Sequence: UUUAACGACAUGUAAACCA
- cell viability [1]: 112%
- cell viability [2]: 64%

Sequence: UUUAACUACAUGUAAACCA
- cell viability [1]: 62.4%
- cell viability [2]: 56.6%

Sequence: UUUAAGAACAUGUAAACCA
- cell viability [1]: 93.8%
- cell viability [2]: 54.3%

Sequence: UUUAAGCACAUGUAAACCA
- cell viability [1]: 63%
- cell viability [2]: 34.8%

Sequence: UUUAAGGACAUGUAAACCA
- cell viability [1]: 71.8%
- cell viability [2]: 58.4%

Sequence: UUUAAGUACAUGUAAACCA
- cell viability [1]: 26.1%
- cell viability [2]: 37.3%

Sequence: UUUAAUAACAUGUAAACCA
- cell viability [1]: 101%
- cell viability [2]: 75.6%

Sequence: UUUAAUCACAUGUAAACCA
- cell viability [1]: 99.3%
- cell viability [2]: 57.7%

Sequence: UUUAAUGACAUGUAAACCA
- cell viability [1]: 97.9%
- cell viability [2]: 54.3%

Sequence: UUUAAUUACAUGUAAACCA
- cell viability [1]: 120%
- cell viability [2]: 59.7%

Sequence: UUUACAAACAUGUAAACCA
- cell viability [1]: 101%
- cell viability [2]: 52.9%

Sequence: UUUACACACAUGUAAACCA
- cell viability [1]: 85.1%
- cell viability [2]: 61.2%

Sequence: UUUACAGACAUGUAAACCA
- cell viability [1]: 105%
- cell viability [2]: 57.9%

Sequence: UUUACAUACAUGUAAACCA
- cell viability [1]: 79.5%
- cell viability [2]: 55.4%

Sequence: UUUACCAACAUGUAAACCA
- cell viability [1]: 106%
- cell viability [2]: 63.5%

Sequence: UUUACCCACAUGUAAACCA
- cell viability [1]: 57.4%
- cell viability [2]: 35.7%

Sequence: UUUACCGACAUGUAAACCA
- cell viability [1]: 79.1%
- cell viability [2]: 67.4%

Sequence: UUUACCUACAUGUAAACCA
- cell viability [1]: 80.5%
- cell viability [2]: 27.6%

Sequence: UUUACGAACAUGUAAACCA
- cell viability [1]: 77.8%
- cell viability [2]: 56.7%

Sequence: UUUACGCACAUGUAAACCA
- cell viability [1]: 86.8%
- cell viability [2]: 32.7%

Sequence: UUUACGGACAUGUAAACCA
- cell viability [1]: 93%
- cell viability [2]: 46.8%

Sequence: UUUACGUACAUGUAAACCA
- cell viability [1]: 79.9%
- cell viability [2]: 54.6%

Sequence: UUUACUAACAUGUAAACCA
- cell viability [1]: 71.2%
- cell viability [2]: 63.9%

Sequence: UUUACUCACAUGUAAACCA
- cell viability [1]: 90.7%
- cell viability [2]: 49.3%

Sequence: UUUACUGACAUGUAAACCA
- cell viability [1]: 89.5%
- cell viability [2]: 55%

Sequence: UUUACUUACAUGUAAACCA
- cell viability [1]: 87.6%
- cell viability [2]: 69.2%

Sequence: UUUAGAAACAUGUAAACCA
- cell viability [1]: 118%
- cell viability [2]: 64.9%

Sequence: UUUAGACACAUGUAAACCA
- cell viability [1]: 68.6%
- cell viability [2]: 45.3%

Sequence: UUUAGAGACAUGUAAACCA
- cell viability [1]: 80.4%
- cell viability [2]: 58.2%

Sequence: UUUAGAUACAUGUAAACCA
- cell viability [1]: 104%
- cell viability [2]: 65.7%

Sequence: UUUAGCAACAUGUAAACCA
- cell viability [1]: 106%
- cell viability [2]: 49.6%

Sequence: UUUAGCCACAUGUAAACCA
- cell viability [1]: 51%
- cell viability [2]: 28.9%

Sequence: UUUAGCGACAUGUAAACCA
- cell viability [1]: 82.1%
- cell viability [2]: 62.8%

Sequence: UUUAGCUACAUGUAAACCA
- cell viability [1]: 78.2%
- cell viability [2]: 15.1%

Sequence: UUUAGGAACAUGUAAACCA
- cell viability [1]: 86.9%
- cell viability [2]: 58.5%

Sequence: UUUAGGCACAUGUAAACCA
- cell viability [1]: 66.3%
- cell viability [2]: 13.4%

Sequence: UUUAGGGACAUGUAAACCA
- cell viability [1]: 68.5%
- cell viability [2]: 33.1%

Sequence: UUUAGGUACAUGUAAACCA
- cell viability [1]: 96.3%
- cell viability [2]: 49.9%

Sequence: UUUAGUAACAUGUAAACCA
- cell viability [1]: 92%
- cell viability [2]: 67%

Sequence: UUUAGUCACAUGUAAACCA
- cell viability [1]: 58.4%
- cell viability [2]: 37.6%
